The values below come from paper PMC4336329 (PLoS ONE, 2015).

Hit rate of the full screen: of about 310,000 compounds, about 14,000 (4.5%) showed an effect of 50% or more. The effect is printed as a negative number. The list shows a part of the results.
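Also: peak tail current of the secondary pulse compared with the same well before compound.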

For this assay, the target named is human ether-à-go-go-related gene (hERG) potassium channel (human, UniProt Q12809). Description: primary screen, population patch clamp on CHO cells stably expressing hERG.
Chain of human ether-à-go-go-related gene (hERG) potassium channel (Q12809 whole entry, looked up): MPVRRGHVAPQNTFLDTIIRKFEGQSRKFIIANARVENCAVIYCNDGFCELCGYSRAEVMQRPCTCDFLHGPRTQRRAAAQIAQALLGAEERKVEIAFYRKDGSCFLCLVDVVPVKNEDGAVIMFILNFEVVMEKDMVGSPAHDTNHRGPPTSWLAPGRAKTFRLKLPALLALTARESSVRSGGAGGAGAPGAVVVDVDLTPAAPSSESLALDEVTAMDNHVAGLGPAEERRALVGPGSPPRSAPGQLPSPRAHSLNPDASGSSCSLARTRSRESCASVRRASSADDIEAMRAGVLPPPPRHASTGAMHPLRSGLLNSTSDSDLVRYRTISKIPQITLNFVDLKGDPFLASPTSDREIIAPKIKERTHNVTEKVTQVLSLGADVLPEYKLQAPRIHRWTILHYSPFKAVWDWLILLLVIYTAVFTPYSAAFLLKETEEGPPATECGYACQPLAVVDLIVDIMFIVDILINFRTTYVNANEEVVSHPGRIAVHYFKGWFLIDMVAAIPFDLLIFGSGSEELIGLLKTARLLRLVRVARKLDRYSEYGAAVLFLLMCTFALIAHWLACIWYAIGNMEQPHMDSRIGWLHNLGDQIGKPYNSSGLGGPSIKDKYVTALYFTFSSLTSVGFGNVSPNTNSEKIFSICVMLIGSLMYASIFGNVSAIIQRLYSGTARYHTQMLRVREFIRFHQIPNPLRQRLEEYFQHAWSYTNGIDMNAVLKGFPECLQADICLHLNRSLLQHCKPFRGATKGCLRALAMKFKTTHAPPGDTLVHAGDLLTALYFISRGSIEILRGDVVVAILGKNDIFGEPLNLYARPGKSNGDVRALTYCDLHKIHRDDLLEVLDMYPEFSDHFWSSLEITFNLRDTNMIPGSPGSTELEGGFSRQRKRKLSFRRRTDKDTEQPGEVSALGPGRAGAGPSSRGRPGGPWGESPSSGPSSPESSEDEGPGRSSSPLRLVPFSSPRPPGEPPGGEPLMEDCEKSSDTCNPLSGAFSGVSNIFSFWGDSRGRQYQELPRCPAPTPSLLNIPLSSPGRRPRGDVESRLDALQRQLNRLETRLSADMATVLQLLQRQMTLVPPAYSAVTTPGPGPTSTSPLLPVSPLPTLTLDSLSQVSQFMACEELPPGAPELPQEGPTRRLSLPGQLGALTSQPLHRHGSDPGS
With `Cc1nn(CCCC(=O)NCc2ccccc2Cl)c(=O)c2nccn12`, the “hERG current change (%, negative = inhibition) at 10uM” value stood at 11.3%.
The value for `CCCNC(=S)Nc1c(C)n(C)n(-c2ccccc2)c1=O` was 9.19%.
The value for `CCCc1cc(=O)[nH]c(SCC(=O)CSc2nc(CCC)cc(=O)[nH]2)n1` was 11%; that for `CCCCNC(=O)c1ccccc1Cl` was 21.5%.
Regarding `N/C(Cn1cncn1)=N\OC(=O)c1ccc(Cl)cc1Cl`, the “hERG current change (%, negative = inhibition) at 10uM” value was -9.29%.
The figure for `CC(=O)NC1C(OC(=O)/C=C/c2ccccc2)OC(COC(C)=O)C(OC(C)=O)C1OC(C)=O` (centres unmarked) is -21.8%.
The value for `CCCc1ccc(C(=O)[C@@H]2[C@@H](C(C)=O)N3c4ccc(F)cc4C=C[C@@H]3[C@@]23C(=O)Nc2ccccc23)cc1` was 4.86%; that for `CC(NC(=O)C(=O)N1CCCCC1)C(c1cccs1)N1CCN(Cc2ccccc2)CC1` (centres unmarked) was -4.2%; that for `O=C1CCC/C(=N/NC(=O)c2cc(NS(=O)(=O)c3cccs3)cc(NS(=O)(=O)c3cccs3)c2)C1` was 15.7%.
For the molecule `CCOC(=O)C1(CCc2ccccc2)CCN(Cc2nccn2CC)CC1`, the “hERG current change (%, negative = inhibition) at 10uM” value is -66.2%.
In the case of `COC(=O)CC1C(=O)NCCN1C(=O)CSc1nnnn1-c1ccc(Cl)cc1` (centres unmarked), the “hERG current change (%, negative = inhibition) at 10uM” value is given as -8.68%.
As to `COc1ccc(OCCC(=O)OCC(=O)NCc2ccccc2OC)cc1`, the “hERG current change (%, negative = inhibition) at 10uM” value is -25.7%.
The figure for `CC(C)(C)[C@@H]1C=C(C(N)=O)O[C@H](OCc2ccc(CO)cc2)C1` is -3.3%; for `Cc1ccc(CN2CCNC2=O)cc1` it is -7.3%; for `O=C(OCC(=O)N1CCCc2ccccc21)c1cc(Br)ccc1O` it is 12.4%.
The figure for `CCn1cc(CN2CCC(C(=O)Nc3cccc(-c4cccc(OC)c4)c3)CC2)c(C)n1` is -46.3%; for `CCOC(=O)CNC(=O)COc1coc(CN2CCN(Cc3ccccc3)CC2)cc1=O` it is -9.71%; for `COc1ccc(CCN(C)Cc2nc(Cc3ccc(OC)c(OC)c3)no2)cc1OC` it is 0.332%.
The value for `Cc1ccc(C)c(NC(=S)NCc2ccc3c(c2)OCO3)c1` was 16.1%.
As for `CC1CCN(CCCNc2cc(NCCO)c([N+](=O)[O-])c3nonc23)CC1`, the “hERG current change (%, negative = inhibition) at 10uM” value is 19%.
The figure for `CCN(Cc1ccccc1)C(=O)c1ccc2c(=O)n3c(nc2c1)CCC3` is -10.7%.
For `CN1CCC(N(C)C(=S)NCCc2ccccc2)CC1`, the “hERG current change (%, negative = inhibition) at 10uM” value is recorded as -31%.
The figure for `CCOc1ccc(-n2c(Cc3cc(=O)[nH]c(=O)[nH]3)nnc2SCc2cccnc2)cc1` is 11.4%; for `Cc1ccc(C)c(Nc2cc(C)nc(-c3ccccc3O)n2)c1` it is 15%.
The figure for `C=CCC(Nc1ccco1)c1ccccc1.Cl` (centres unmarked) is -7.03%.
The figure for `O=C(/C=C/Nc1ccc(S(=O)(=O)Nc2cnc3ccccc3n2)cc1)c1cccnc1` is -12.9%; for `Cc1ccc(CNC(=O)c2nnc(Cc3ccc(Cl)cc3)o2)cc1` it is 7.49%; for `Cc1cc([N+](=O)[O-])nn1CC(=O)N/N=C/c1ccc(O)cc1O` it is -3.52%.
For `Clc1ccc(-c2nc3ccc(Cl)cn3c2CN2CCOCC2)cc1`, the “hERG current change (%, negative = inhibition) at 10uM” value is on record as -13.2%.
For `NNC(=O)C1c2ccccc2Oc2ccccc21`, the “hERG current change (%, negative = inhibition) at 10uM” value is listed as 20.2%.
The value for `COc1ccc(CNC(=O)C2CSC(c3ccc(OC)cc3)N2C(C)=O)cc1` (centres unmarked) was -13.5%.
The value for `Cc1cc(OCc2nc(-c3ccc(NC(=O)c4cccnc4)cc3)no2)ccc1Cl` was 10.7%.
In the case of `COc1ccc(/C=C/C(=O)c2ccc(NC(=O)c3cccs3)cc2)cc1OC`, the “hERG current change (%, negative = inhibition) at 10uM” value is -3.14%.
For the molecule `Cc1nc2c(nnn2Cc2ccccc2Cl)c(=O)[nH]1`, the “hERG current change (%, negative = inhibition) at 10uM” value is recorded as 13.5%.
Take `O=C(NCCN1CCOCC1)C(=O)NCc1ccc2c(c1)OCO2`: the “hERG current change (%, negative = inhibition) at 10uM” value is reported as 22.8%.
On to `O=c1cc(-c2ccc(Cl)cc2)[nH]c2ccccc12`, for which the “hERG current change (%, negative = inhibition) at 10uM” value was 5.97%.
The figure for `O=C1CCN(Cc2ccc(Br)cc2)CCN1[C@H](CO)Cc1ccccc1` is -10.4%; for `CCn1ncc(/C=C/C(=O)NCc2cn(C)nc2C)c1C` it is -3.66%; for `CCN(CC)S(=O)(=O)c1cc(NC(=O)CSc2nnc(-c3cccs3)o2)ccc1C` it is -14.3%.
The value for `COCCCn1c(-c2cccs2)nc2nc3ccccc3nc21` was -7.93%; that for `CCCCCn1c(CN2CCN(c3cc(Cl)ccc3C)CC2)nc2c1c(=O)[nH]c(=O)n2C` was -7.77%; that for `CCOC(=O)C1=NN(C(C)=O)C2C(=O)N(CC)C(=O)C12` (centres unmarked) was 15.6%.
The value for `Cc1ccc([N+](=O)[O-])c(OCCN2C(=O)NC(C)(C)C2=O)c1` was 30.6%; that for `C=CCOc1ccc(C2C(C(=O)c3ccco3)=C(O)C(=O)N2CCCN(CC)CC)cc1` (centres unmarked) was 9.98%.
As to `CC(NC(=O)c1cccnc1)C(=O)N1CCCCC1` (centres unmarked), the “hERG current change (%, negative = inhibition) at 10uM” value stood at 0.941%.
The value for `COc1ccc(N2CC(C(=O)Nc3nnc(SCCC4OCCO4)s3)CC2=O)cc1` (centres unmarked) was 17.7%; that for `Cc1ccc(NC(=S)NCCc2ccc(S(N)(=O)=O)cc2)c(C)c1` was -8.43%.
Regarding `O=C(OCCNc1ccc(C(F)(F)F)cc1[N+](=O)[O-])c1cc2ccccc2oc1=O`, the “hERG current change (%, negative = inhibition) at 10uM” value came out at 4.72%.
The value for `COc1ccc(-c2ccc(CCC(=O)O)n2CC2CCCO2)cc1` (centres unmarked) was 19.4%.
The figure for `[N-]=[N+]=NC[C@H](Cc1ccccc1)N1CC[C@@H](O)CCC1=O` is 3.94%; for `CCOc1ccc(NC(C)=O)cc1[N+](=O)[O-]` it is 6.58%; for `COc1ccccc1NC(=O)Cc1cccc2ccccc12` it is 14.1%.
The figure for `Cc1ccc(S(=O)(=O)N2CC=C(C(=O)NCCC(C)C)CC2)cc1` is -10.6%.
Take `Cc1cccc(N(CC(=O)NCc2ccccc2)C(=O)Cn2nnc(-c3ccc(C)o3)n2)c1`: the “hERG current change (%, negative = inhibition) at 10uM” value is -9.54%.
In the case of `O=C(CN1CCN(S(=O)(=O)c2ccc(Br)cc2)CC1)N/N=C/c1cccs1`, the “hERG current change (%, negative = inhibition) at 10uM” value is given as -58.4%.
The figure for `CCCCS(=O)(=O)N1CCC(C(=O)Oc2ccccc2OC)CC1` is -9.14%.
